Results taken from patent publication US20040223966A1 (Pfizer, published 2004).

Target: T1, biotinylated mature BMP-11 (human, UniProt O95390 299-407, biotinylated with EZ-link Sulfo-NHS-Biotin, in the same manner as GDF-8; sites not stated)
T1 construct: mature; Active mature BMP-11 dimer purified from a cell line expressing recombinant human BMP-11; also called biotinylated BMP-11; GDF-11
T1 sequence (looked up): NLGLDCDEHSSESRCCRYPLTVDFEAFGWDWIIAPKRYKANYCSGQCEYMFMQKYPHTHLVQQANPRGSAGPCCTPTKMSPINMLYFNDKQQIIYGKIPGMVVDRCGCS
Assay: ELISA on coated ActRIIB-Fc
Description: Biotinylated mature BMP-11 was prepared from BMP-11 latent complex in the same manner as described above. Recombinant ActRIIB-Fc, prepared as described in Examples 3 and 4, was coated on 96-well flat-bottom assay plates (Costar, NY, Cat. No. 3590) at 1 μg/ml in 0.2 M sodium carbonate buffer (pH 10) overnight at 4° C. Plates were then blocked with 1 mg/ml bovine serum albumin and washed following standard ELISA protocol. 100 μl aliquots of biotinylated GDF-8 or BMP-11 at various concentrations were added to the blocked ELISA plate, incubated for 1 hr and washed. The amount of bound GDF-8 or BMP-11 was detected by Streptavidin-Horseradish peroxidase (SA-HRP, BD PharMingen, San Diego, Calif., Cat. No. 13047E) followed by the addition of TMB (KPL, Gaithersburg, Md., Cat. No. 50-76-04). Colorimetric measurements were done at […] in a Molecular Devices microplate reader.

B1: ActRIIB-Fc (Fc fusion)
chain: TSGRGEAETRECIYYNANWELERTNQSGLERCEGEQDKRLHCYASWRNSSGTIELVKKGCWLDDFNCYDRQECVATEENPQVYFCCCEGNFCNERFTHLPEAGGPEVTYEPPPTAPTGGRGDDDDKTRSR[… human IgG1 Fc with changes …]
notes: The leader is stated as aa 1-21; also called ActRIIB fusion polypeptide; recombinant ActRIIB-Fc
binding result: binds
